According to PubChem BioAssay AID540317 (National Center for Advancing Translational Sciences (NCATS), 2011):
The campaign covered roughly 390,000 compounds. About 2,200 (0.56%) were called active. The shares of active, inactive and inconclusive entries below differ from those in the screen. Calls follow the shape of the dose curve; as a rule, active = well fitted inhibition curve with a large enough effect; inconclusive = small, poorly fitted or top-dose-only effect; inactive = no such curve, though single readings can be large or run the other way. Potencies of inconclusive entries are doubtful fits and often do not repeat.
Also: nearly all actives have a fitted effect of over 70% in size.
Potency is read from the fitted curve at half-maximal effect; tags tell the direction and shape of the fitted curve.

These compounds were tested against Chromobox protein homolog 1 (Homo sapiens) (UniProt P83916) (assay: HTS for Inhibitors of HP1-beta Chromodomain Interactions with Methylated Histone Tails). Settings: AlphaScreen HP1-beta / biotin-H3K9me3 peptide binding; series mostly up to 114 µM.
Chain of UniProt P83916 (P83916 whole entry, looked up): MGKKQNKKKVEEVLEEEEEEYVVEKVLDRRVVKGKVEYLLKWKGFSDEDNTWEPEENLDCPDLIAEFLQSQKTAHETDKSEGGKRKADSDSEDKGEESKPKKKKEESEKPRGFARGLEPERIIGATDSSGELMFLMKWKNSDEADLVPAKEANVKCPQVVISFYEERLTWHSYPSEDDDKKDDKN
How it was run: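 Compound inhibition of the preformed complex between 50 nM HP1-beta and 50 nM biotinylated H3K9me3 peptide was read by AlphaScreen. Buffer was PBS pH 7.4 with 0.01% Tween-20. Incubations ran 30 min at room temperature, with 10 ug/mL donor/acceptor beads.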
With `CCn1c(=O)c(C(=O)NCCc2ccc(OC)c(OC)c2)c(O)c2ccccc21` the Potency was “inactive”.
For `COc1cc(CNCc2ccco2)ccc1OCc1ccccc1`, the Potency was inconclusive: 6.31 µM [inhibitor, full curve].
For `Cc1ccc(C)c(S(=O)(=O)Nc2cc(SCC(=O)O)c(O)c3ccccc23)c1`, the Potency was inconclusive: 20 µM [inhibitor, full curve, poor fit].
`COc1ccc(-c2[nH]c(-c3ccc(SC)cc3)nc2SCC(=O)Nc2nccs2)cc1` was tested, and the Potency was “inactive”.
`Clc1ccc(/C=N/c2c(-c3ccco3)nc3ccccn23)cc1` was tested, and the Potency was inconclusive: 35.5 µM [inhibitor, partial curve].
In the case of `O=C(CC1SC(N2CCOCC2)=NC1=O)Nc1ccc(F)cc1` (stereo not given), the Potency is reported as “inactive”.
`CC(=O)N1CCc2cc(CNC(=O)Nc3ccc(Br)c(C)c3)ccc21` was tested, and the Potency was “inactive”.
In the case of `O=S(=O)(Nc1ccc(N2CCCCC2)cc1)c1ccccc1F`, the Potency is reported as inconclusive: 79.4 µM [inhibitor, partial curve].
For `C[C@H](CO)N1C[C@H](C)[C@@H](CN(C)S(=O)(=O)c2ccccc2)Oc2ccc(NC(=O)Nc3ccccc3)cc2C1=O`, the Potency was inconclusive: 35.5 µM [inhibitor, single point].
In the case of `CC(NC(=O)CCl)c1ccc(Cl)c(Cl)c1` (stereo not given), the Potency is reported as “inactive”.
For `C/C(=N\Nc1ccc([N+](=O)[O-])cc1[N+](=O)[O-])c1ccc(-n2nncc2C(C)(C)C)cc1`, the Potency was inconclusive: 20 µM [inhibitor, single point].
`O=C(NC(=S)Nc1cccnc1)c1cccs1` was tested, and the Potency was “inactive”.
For `CCOC(=O)c1c(C)[nH]c(C(=O)COC(=O)[C@H](C)N2C(=O)C3CCCCC3C2=O)c1C` (stereo not given in full), the Potency was inconclusive: 100 µM [inhibitor, single point].
With `Cc1cccc(N2CCN(C(=O)c3ccc4ccccc4c3)CC2C)c1` (stereo not given) the Potency was inconclusive: 50.1 µM [inhibitor, partial curve].
In the case of `Cc1cccc(N2CCN(Cc3ccoc3)CC2)c1C`, the Potency is reported as inconclusive: 15.8 µM [inhibitor, full curve, poor fit].
`CCNc1nc(NCC)nc(OCCOC(C)=O)n1` was tested, and the Potency was “inactive”.
With `COc1ccccc1CNC(=O)CN1C(=O)NC2(CCCC2)C1=O` the Potency was “inactive”.
For `COCc1cc(CN2CCCC(C(=O)Nc3ccc(-c4ccco4)cc3)C2)ccc1OC` (stereo not given), the Potency was inconclusive: 25.1 µM [inhibitor, partial curve].
For `O=C(O)Cn1cc(/C=N/Nc2ccc([N+](=O)[O-])cn2)c2ccccc21`, the Potency was inconclusive: 70.8 µM [inhibitor, partial curve].
`O=[N+]([O-])c1ccc(N2CCCCC2)nc1N1CCCCC1` was tested, and the Potency was inconclusive: 35.5 µM [inhibitor, partial curve].
For `CN(C)c1ccc(C(CNC(=O)c2ccccc2)N2CCc3ccccc32)cc1` (stereo not given), the Potency was inconclusive: 15.8 µM [inhibitor, full curve].
With `COc1ccc2c3c(ccc2c1)C(=O)/C(=C/O)CC3` the Potency was active: 35.5 µM.
In the case of `COc1ccc(N2CCN(CCCNC(=O)CN3CCN(Cc4ccccc4C)C3=O)CC2)cc1`, the Potency is reported as inconclusive: 56.2 µM [inhibitor, partial curve, poor fit].
For `O=C(O)CC/C(=N\Nc1ccc(S(=O)(=O)N2CCCC2)cc1[N+](=O)[O-])c1cccs1`, the Potency was inconclusive: 44.7 µM [inhibitor, single point].
`O=C1ON=C(c2ccc(Cl)c([N+](=O)[O-])c2)/C1=C/c1cccc([N+](=O)[O-])c1O` was tested, and the Potency was “inactive”.
For `CN(C(=S)NC(=O)C12CC3CC(CC(C3)C1)C2)c1ccc(O)cc1`, the Potency was active: 10 µM.
With `CCN(CC(=O)NCc1cccs1)C(=O)/C=C/c1cccc(Cl)c1Cl` the Potency was inconclusive: 89.1 µM [inhibitor, single point].
In the case of `Cc1ccc(CNS(=O)(=O)c2cc3[nH]c(=O)c(=O)[nH]c3cc2C)cc1`, the Potency is reported as “inactive”.
`NS(=O)(=O)c1ccc(N/N=C/C=C/c2ccccc2[N+](=O)[O-])cc1` was tested, and the Potency was inconclusive: 50.1 µM [inhibitor, partial curve].
In the case of `CCC(CC)NCC(O)COc1ccc(Br)cc1` (stereo not given), the Potency is reported as inconclusive: 50.1 µM [inhibitor, partial curve, poor fit].
For `CCOC(=O)c1c(CC(C)C)csc1NC(=O)CCl`, the Potency was inconclusive: 6.31 µM [inhibitor, single point].
With `Cc1nn(CCc2nn[nH]n2)c2nc(-c3ccccc3)cc(C(F)(F)F)c12` the Potency was “inactive”.
`Oc1ccc(N2CCN(Cc3nc4ccccc4[nH]3)CC2)cc1` was tested, and the Potency was inconclusive: 79.4 µM [inhibitor, single point].
`O=C(CCS(=O)(=O)c1ccc(Br)cc1)NCCc1ccc(Cl)cc1` was tested, and the Potency was inconclusive: 35.5 µM [inhibitor, partial curve].
`COCCCNC(=S)N1CCN(Cc2ccc3c(c2)OCO3)CC1` was tested, and the Potency was inconclusive: 22.4 µM [inhibitor, full curve].
In the case of `CC(C)(C)OC(=O)N1CCN(C(=O)Cn2cc(CCO)nn2)CC1`, the Potency is reported as “inactive”.
`COc1ccc(C=CC(=O)c2ccc(OC)c(OC)c2O)cc1OC` was tested, and the Potency was inconclusive: 17.8 µM [inhibitor, partial curve, poor fit].
`CCc1ccccc1NC(=O)CCS(=O)(=O)c1ccc(OC)cc1` was tested, and the Potency was inconclusive: 50.1 µM [inhibitor, partial curve].
`O=C(c1ccccc1)N1CCN(Cc2ccccc2Br)CC1` was tested, and the Potency was inconclusive: 15.8 µM [inhibitor, full curve, poor fit].
`COc1cc(C(=O)NNC(=S)NC(=O)c2ccc(Cl)cc2)cc(OC)c1OC` was tested, and the Potency was inconclusive: 31.6 µM [inhibitor, single point].
With `O=C(Oc1cccnc1)c1cc(S(=O)(=O)N2CCOCC2)ccc1Cl` the Potency was “inactive”.
For `CCOc1cccc(OCCCCN2CCOCC2)c1`, the Potency was inconclusive: 44.7 µM [inhibitor, partial curve].
For `Cc1csc(=O)n1CCC(=O)OCC(=O)Nc1cc(Cl)ccc1[N+](=O)[O-]`, the Potency was inconclusive: 50.1 µM [inhibitor, partial curve, poor fit].
With `CC(=O)c1cccc(OCc2cc(C(=O)N3C[C@H]4CC[C@H]3C4)no2)c1` the Potency was “inactive”.
In the case of `COc1ccc(OC)c(NC(=O)CCN2CCN(Cc3ccccc3)CC2)c1`, the Potency is reported as “inactive”.
For `COc1ccc(OC)c(/C=C/c2[nH]c(=O)[nH]c(=O)c2[N+](=O)[O-])c1`, the Potency was inconclusive: 39.8 µM [inhibitor, partial curve].
With `Cn1cccc1-c1cc(C(=O)N/N=C/c2ccc(F)cc2)[nH]n1` the Potency was inconclusive: 35.5 µM [inhibitor, partial curve, poor fit].
For `CSc1ccc(CN2CCCCCC2)cc1`, the Potency was inconclusive: 56.2 µM [inhibitor, single point].
For `CC[n+]1c(/C=C2\Sc3ccccc3N2C)ccc2cccc(C)c21`, the Potency was inconclusive: 70.8 µM [inhibitor, partial curve].
With `O=C1c2ccccc2C(=O)N1CN(C(=O)c1ccccc1)c1ccc(O)cc1` the Potency was “inactive”.
For `S=C(c1cccs1)N1CCN(c2ccccc2)CC1`, the Potency was inconclusive: 10 µM [inhibitor, partial curve, poor fit].
`Cc1ccc(N2CCN(Cc3ccccc3)CC2=O)c(C)c1` was tested, and the Potency was inconclusive: 14.1 µM [inhibitor, full curve, poor fit].
`Cc1ccccc1CNC(=O)C(=O)NCC1CCCN1S(=O)(=O)c1cccs1` (stereo not given) was tested, and the Potency was “inactive”.
`O=C(OCc1cc(=O)n2nc(-c3cccs3)sc2n1)c1ccccc1Cl` was tested, and the Potency was “inactive”.
For `Clc1cc(Br)ccc1OCCCn1ccnc1`, the Potency was inconclusive: 56.2 µM [inhibitor, single point].
In the case of `CN(C)S(=O)(=O)c1cc(NC(=O)CNCc2ccccc2)ccc1Cl`, the Potency is reported as inconclusive: 70.8 µM [inhibitor, partial curve].
In the case of `CC1=C(C#N)C(=O)NC(=O)/C1=C/c1ccc(-c2ccc(S(N)(=O)=O)cc2)o1`, the Potency is reported as inconclusive: 56.2 µM [inhibitor, single point].
`NCCc1c(-c2ccccc2)n(-c2ccccc2)c2ccccc12` was tested, and the Potency was inconclusive: 22.4 µM [inhibitor, full curve].
With `N#Cc1ccc(C(=O)NC2CCCCCCC2)cc1` the Potency was “inactive”.
In the case of `C/C(=N\N=c1/scc(C)n1Cc1ccco1)c1cccc([N+](=O)[O-])c1`, the Potency is reported as inconclusive: 10 µM [inhibitor, partial curve, poor fit].
`COc1cc(OC)c(OC)cc1CNCc1ccco1` was tested, and the Potency was inconclusive: 56.2 µM [inhibitor, partial curve, poor fit].
For `Cc1ccccc1OCCC(=O)N1CCN(S(=O)(=O)c2ccc(Cl)cc2)CC1`, the Potency was “inactive”.
In the case of `C/C(=N\Nc1ccccn1)c1cccs1`, the Potency is reported as inconclusive: 79.4 µM [inhibitor, single point].
`CSC(=S)N/N=C(\C)c1ccc(Br)cc1` was tested, and the Potency was inconclusive: 15.8 µM [inhibitor, full curve].
In the case of `CCOC(=O)c1c(-c2ccc(C)o2)csc1NC(=S)NC(=O)N(C)C`, the Potency is reported as inconclusive: 56.2 µM [inhibitor, partial curve].
In the case of `COCc1cc(C)n(CC(=O)Nc2ccccc2OC)c(=O)c1C#N`, the Potency is reported as inconclusive: 35.5 µM [inhibitor, single point].
With `CCOC(=O)N1CCN(S(=O)(=O)c2ccc(C(=O)Nc3nnc(C4CC4)o3)cc2)CC1` the Potency was “inactive”.
`Cc1ccc(/C=C/C(=O)N2CCN(c3ncccn3)CC2)o1` was tested, and the Potency was inconclusive: 31.6 µM [inhibitor, single point].
In the case of `CCN(CC)c1ccc(NC(=O)c2ccc(S(=O)(=O)N3CCOCC3)cc2)cc1`, the Potency is reported as inconclusive: 56.2 µM [inhibitor, partial curve, poor fit].
In the case of `COc1ccc(NS(=O)(=O)c2ccc3c(c2)OCCO3)cc1OC`, the Potency is reported as “inactive”.
